About 120 (0.25%) of roughly 48,000 compounds were called active. Roughly 4% stayed inconclusive and do not appear here. Calls come from the whole dose curve; as a rule, active = well fitted activation curve with a large enough effect; inconclusive = small, poorly fitted or top-dose-only effect, or another doubt; inactive = no such curve, though single readings can be large or run the other way. This is one part of the list.
Assay: Primary qHTS for Identification of Small Molecule Activators of Huntingtin-Antisense Promoter Activity; note: nearly all actives have a fitted effect of over 55% in size
Settings: HEK293 HTT-AS promoter firefly luciferase reporter (activity 0% = vehicle and -100% = no light), 24 h; series mostly up to 57.5 µM; activity change, positive = activation: at the top concentration
Procedure, shortened: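 Firefly luciferase signal from promoter-reporter HEK293 cells was scaled between vehicle (0%) and zero RLU (-100%). Compounds were tested at final concentrations of up to 57.5 uM over 24 h at 37 degrees C. PTC124 at 50 uM final served as control inhibitor.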

Activity change, positive = activation, inactive:
Cn1c(=O)oc2cc(S(=O)(=O)NCCC(=O)NCc3ccc(F)cc3)ccc21 -4.04%
CCOc1ccccc1CNC(=O)c1cnc2sc(N3CCOCC3)nn2c1=O -9.66%
CCN(C(=O)Cn1c(=O)nc(-c2ccccc2)c2cc(Cl)ccc21)c1cccc(C)c1 -0.728%
CCc1cccc(NC(=O)C2CCC(CNS(=O)(=O)c3ccc4c(c3)CCCC(=O)N4)CC2)c1 (stereo unspecified) -21.9%
CCOc1ccc(CCNC(=O)Cn2ncc3c([nH]c4ccccc43)c2=O)cc1OCC -9.7%
O=C(N/N=C/c1ccc([N+](=O)[O-])o1)c1ccc(O)cc1 -44.3%
OCCN1CCN(C(c2ccc(Cl)cc2Cl)c2sc3nc(-c4ccco4)nn3c2O)CC1 (stereo unspecified) -4.17%
CCOc1ccc(-n2c(SCC(=O)Nc3ccc4c(c3)OCCO4)nc3c([nH]c4ccccc43)c2=O)cc1 -14.4%
Clc1ccccc1-c1nnc(-c2ccccc2CNc2ccc(Br)cc2)o1 18.2%
CC(C)c1ccc2c(c1)NC(c1ccncc1)=NC(c1cccs1)=N2 18.4%
COc1ccc(-c2cc(OC(=O)c3ccccc3)c3c(C)oc(C)c3c(=O)c2)cc1OC -6.53%
CCc1cccc(NC(=O)C(NS(=O)(=O)c2ccc3nc(C)sc3c2)C(C)C)c1 (stereo unspecified) -9.68%
CCOc1ccccc1NC(=O)CCc1c(C)nc2c(c(C)nn2-c2ccccc2)c1C 3.4%
C#CCSc1nc(-c2ccccc2)c2cc(Cl)ccc2n1 -17.2%
Cc1ccc(Cl)cc1N1CCN(C(=O)c2ccc3c(c2)N(Cc2ccccc2F)C(=O)c2ccccc2S3=O)CC1 (stereo unspecified) -12.8%
O=C(CCS(=O)(=O)c1cc(Br)cc2c1N(C(=O)C1CC1)CC2)Nc1ccc(F)cc1 -5.32%
Cc1ccc(CNC(=O)c2sc3nc(-c4ccccc4)cn3c2C)cc1 -8.32%
Cc1cccc(Cn2cnc3c(cnn3-c3ccc(Cl)cc3)c2=O)c1 -0.682%
Cc1cc(C)c2oc(C(=O)Nc3ccc(S(=O)(=O)N4CCC(C)CC4)cc3)cc(=O)c2c1 -8.73%
Cc1ccc(CN2CCN(C3CCN(C(=O)Nc4ccccc4C(F)(F)F)CC3)C(=O)C2=O)cc1 -13.9%
Cc1cc(C)n2c(Nc3ccccc3)c(-c3ccccc3)nc2n1 -8.32%
CCn1c(=O)cc(OCC(=O)N2CCN(c3ccccc3OC)CC2)c2ccccc21 -3.94%
Cc1cccc(Cn2nnc(C(=O)Nc3cc(C)ccc3C)c2N)c1 -27.2%
Cc1cccc(C)c1NC(=O)CCCN1C(=O)CCn2nc(-c3cn(C)c4ccccc34)cc21 3.68%
COc1cccc(NC(=O)C2CCN(c3nc4ccccc4nc3C(F)(F)F)CC2)c1 -15.2%
Cc1ccc(CNC(=O)CCCn2c(=O)c3ccccc3n(Cc3ccccc3C)c2=O)cc1 -29.5%
